The inconclusive results got no clear call from the source; some entries with a clear call stand among them for comparison. No potency is given beside an inconclusive call; the fits are too rough. Calls of active or inactive are those of the source. The call rests on the fitted dose curve; in most records, active means well fitted inhibition curve with a large enough effect; inconclusive means small, poorly fitted or top-dose-only effect; inactive means flat fitted curve, though single readings scatter.
Test system: Trypanosoma brucei pyruvate kinase (TbPYK)
Assay: qHTS of Trypanosoma Brucei Inhibitors: Orthogonal Assay for Cherry-picked Compounds; further: nearly all actives have a fitted effect of over 75% in size
Conditions: recombinant TbPYK, ADP-Glo luminescence, 60 min; activity change, negative = inhibition: at 76.9 µM (top of the series)
Text: Members of the Trypanosomatidae family of parasitic protozoans cause a spectrum of diseases throughout the tropical and subtropical world. Sleeping sickness, caused by two subspecies of Trypanosoma brucei, is endemic to areas of sub-Saharan Africa, while Chagas' disease, a manifestation of Trypanosoma cruzi infection, is prevalent throughout Central and South America. In addition, many species of Leishmania are responsible for a range of cutaneous and visceral diseases, causing ulcers, destructive lesions and kalaazar, a lethal infection of the viscera. These diseases cause severe public health and economic burdens on populations that are often already caught in a tragic cycle of poverty, poor nutrition and disease. Collectively, parasites of the trypanosomatid family infect 30 million people worldwide (~500 million live in endemic areas), and account for ~130K deaths annually. Existing treatments have developed little in the past 50 years, and suffer from toxicity, poor efficacy and resistance; the goal of this project is to develop lead drugs that will be suitable for entry into pre-clinical trials. […] Glycolysis in axenically cultured T. cruzi, representing the intracellular pathogenic stage, is also essential for these parasites. {Engel, 1987} This project aims to discover and optimize selective inhibitors of the glycolytic enzyme pyruvate kinase (PYK) from Trypanosoma brucei, the parasite that causes sleeping sickness. […] Trypanosomatid PYKs show significant differences from their human counterparts including only 47-50% sequence identity and different allosteric and activation properties.{Callens, 1992} To this end, a qHTS was done against the MLSMR to discover inhibitors. To confirm activity of the cherrypicked compounds, an orthogonal assay was developed. While the primary qHTS provides a luminescence-based detection of TbPyK by measuring ATP production, the orthogonal assay will measure the amount of ADP substrate remaining. Decrease in activity signal indicative of inhibition of T. brucei proliferation is the desired outcome for this assay. NIH Molecular Libraries Probe Production Network [MLPCN] NIH Chemical Genomics Center [NCGC] Grant: MH095452 PI Name: Malcolm Walkinshaw, University of Edinburgh
Briefly, 2 uL of substrate/TbPYK buffer (all columns but column 4) are dispensed into Greiner white solid-bottom 1536-well assay plates. Column 4 gets just buffer without enzyme. Compounds are then transferred via Kalypsys pin tool equipped with 1536-pin array (10 nL slotted pins, V&P Scientific, San Diego, CA). Following addition of compound, 1 uL of ADP (130 uM final concentration, columns 1-48) is added to initiate the reaction. The plates are then incubated at room temperature for 60 minutes. ADP-Glo (Promega) reagent I is added (2.5 uL) and plates incubated for 10 minutes. ADP-Glo reagent II is then added (5 uL), followed by a 10 minute room temperature incubation, before being transferred to a ViewLux high-throughput CCD imager (PerkinElmer), wherein single end-point measurements of luminescence are acquired using a clear filter. All reagents are diluted in an assay buffer consisting of 50 mM TEA (pH 7.2), 100 mM KCl, 10 mM MgCl2, 0.05% BSA and 0.01% Tween-20.
On the % scale 0 is the no-effect control and ±100 the full control effect; potency means the concentration at half of the fitted maximal effect; tags describe the fitted curve by direction and shape.

| SMILES | Potency | activity change, negative = inhibition |
| --- | --- | --- |
| O=C1NC(=O)N(CCc2ccc(F)cc2)C(=O)/C1=C/c1ccco1 | inconclusive [inhibitor, single point] |  |
| c1ccc(-c2nc(N3CCOCC3)s[n+]2-c2ccccc2)cc1 | active: 0.708 µM |  |
| O=C1NC(=O)C(=Cc2ccc(N3CCOCC3)cc2)C(=O)N1 | inconclusive [inhibitor, partial curve] |  |
| COc1ccc(CN2C(=O)NC(=O)/C(=C/c3ccc(OC)c(OC)c3OC)C2=O)cc1 | inconclusive [inhibitor, single point] |  |
| CCOC(=O)CSCCOc1ccc(C=C2C(=O)NC(=O)NC2=O)cc1OC | inconclusive [inhibitor, partial curve] |  |
| O=C1C(Cl)=CC(=Nc2ccc(O)cc2)C=C1Cl | inconclusive [inhibitor, full curve] |  |
| CN1C(=O)N(C)C(=O)C2(Sc3ccccc3C2=O)C1=O | inconclusive [inhibitor, full curve] |  |
| Cc1cc(C)n2nc(SC(C)C(=O)N3CCC4(CC3)OCCO4)nc2n1 (stereo not given) |  | inactive: -1.98% |
| O=c1[nH]c(O)c(/C=C2\C=NN=C2c2ccccc2)c(=O)[nH]1 | active: 31.6 µM |  |
| CN1C(=O)C(=Cc2ccccc2Oc2ccc(Cl)c(F)c2)C(=O)N(C)C1=O |  | inactive: -26.4% |
| CCN(CC)c1ccc(NC(=O)c2cccc(C)c2)cc1S(=O)(=O)Nc1ccccc1OC | inconclusive [inhibitor, partial curve] |  |
| Cc1ccc(OCCOc2cccc(C=C3C(=O)NC(=O)NC3=O)c2)cc1 | inconclusive [inhibitor, partial curve] |  |
| CNS(=O)(=O)c1ccc(-c2ccc(C=C3C(=O)NC(=O)NC3=O)o2)cc1 | active: 10 µM |  |
| CCOP(=O)(C1=C(O)C(=O)C(C(C)(C)C)=CC1=O)c1ccccc1 (stereo not given) | inconclusive [inhibitor, partial curve] |  |
| O=C1NC(=O)N(c2ccc3c(c2)OCO3)C(=O)/C1=C\c1ccc(-c2ccccc2C(=O)O)o1 | inconclusive [inhibitor, partial curve] |  |
| O=C1NC(=O)C(=Cc2ccc(OCC(=O)N3CCOCC3)cc2)C(=O)N1 | inconclusive [inhibitor, partial curve] |  |
| C[C@]12CC[C@@H]3c4cc(O)c(O)cc4CC[C@H]3[C@@H]1CC[C@@H]2O | active: 3.55 µM |  |
| CC[n+]1c(/C=C/C=C/c2ccc(N(C)C)cc2)sc2ccccc21 |  | inactive: 9.8% |
| CN1C(=O)C(=Cc2ccccc2OS(=O)(=O)c2ccccc2)C(=O)N(C)C1=O | inconclusive [inhibitor, partial curve] |  |
| COc1ccc(/C=C2\C(=O)NC(=S)N(C)C2=O)cc1C | inconclusive [inhibitor, partial curve] |  |

| SMILES | Potency | activity change, negative = inhibition |
| --- | --- | --- |
| Cc1cccc(N2C(=O)NC(=O)/C(=C/c3cc4c(cc3[N+](=O)[O-])OCO4)C2=O)c1 | inconclusive [inhibitor, partial curve] |  |
| O=C(O)CCn1cc(C=C2C(=O)NC(=S)NC2=O)c(-c2cccc(Cl)c2)n1 | inconclusive [inhibitor, full curve] |  |
| O=C1NC(=O)N(c2ccc(F)cc2)C(=O)/C1=C/c1ccsc1 |  | inactive: -29% |
| Cn1c(O)c(/C=C2\C=c3ccccc3=NC2=O)c(=O)n(C)c1=O |  | inactive: 15.7% |
| COc1cc(/C=C2/C(=O)NC(=O)N(c3ccc(C)cc3)C2=O)cc(OC)c1OC | inconclusive [inhibitor, single point] |  |
| COc1ccc(CN2C(=O)NC(=O)/C(=C/c3cc(OC)c(OC)c(OC)c3)C2=O)cc1 |  | inactive: -27.5% |
| O=C1NC(=O)N(c2ccc(Cl)cc2)C(=O)/C1=C/c1coc2ccc(O)cc2c1=O | inconclusive [inhibitor, partial curve] |  |
| O=c1[nH]c(=S)n(Cc2ccco2)c(O)c1C=NCc1cccs1 |  | inactive: -28.8% |
| O=C1NC(=O)C(=Cc2cccc(OCCOc3ccccc3)c2)C(=O)N1 | inconclusive [inhibitor, partial curve] |  |
| O=C1NC(=O)N(c2ccccc2)C(=O)/C1=C\C=C\c1ccccc1 | inconclusive [inhibitor, partial curve] |  |
| O=C1NC(=O)C(=Cc2cc3c(cc2[N+](=O)[O-])OCO3)C(=O)N1 | inconclusive [inhibitor, partial curve] |  |
| O=C(O)CCn1cc(C=C2C(=O)NC(=O)NC2=O)c(-c2cc3ccccc3oc2=O)n1 | active: 31.6 µM |  |
| O=C1NC(=O)N(c2ccccc2)C(=O)/C1=C/c1ccoc1 |  | inactive: -28.5% |
| O=C1NC(=O)C(=Cc2coc3ccc(O)cc3c2=O)C(=O)N1 | inconclusive [inhibitor, partial curve] |  |
| Cc1ccc(/C=C2\C(=O)NC(=S)N(c3ccc(F)cc3)C2=O)o1 | active: 20 µM |  |
| O=C1NC(=O)C(=Cc2ccsc2)C(=O)N1 | inconclusive [inhibitor, partial curve] |  |
| Cc1ccc(/C=C2\C(=O)NC(=S)N(c3ccc(F)cc3)C2=O)s1 | inconclusive [inhibitor, partial curve] |  |
| CN(C)c1ccc(/C=C/C=C2/C(=O)NC(=O)N(c3ccccc3)C2=O)cc1 |  | inactive: 6.85% |
| Cc1ccc(N2C(=O)NC(=O)/C(=C\c3ccoc3)C2=O)cc1 | inconclusive [inhibitor, single point] |  |
| CCOC(=O)c1c(/N=C/C2C(=O)NC(=S)NC2=O)sc2c1CCC2 | inconclusive [inhibitor, partial curve] |  |

From PubChem BioAssay AID720584 (National Center for Advancing Translational Sciences (NCATS), 2013)
